Laboratory results as given in PMC6387754, “Dual mechanism of TRKB activation by anandamide through CB1 and TRPV1 receptors” (PeerJ, 2019).

Target: T1, TRKB (tropomyosin-related kinase B) (rat (endogenous in primary cortical …, UniProt Q63604 32-821))
T1 construct: TRKB (tropomyosin-related kinase B), receptor of BDNF, endogenous in rat primary cortical cells; precipitated with anti-TRKB; source: endogenous, lysate of primary cortical cultures of E18 rat embryos (DIV8)
Test: co-IP; lysates of DIV8 rat cortical cultures (lysis buffer with 1% NP-40, 137 mM NaCl) incubated overnight at 4 °C with anti-CB1 or anti-TRKB (1 µg antibody / 500 µg total protein), Protein G-sepharose, washed 3 times; blot with anti-TRPV1; no-antibody negative control; TRPV1 precipitated with anti-TRPV1 as total
Settings: partners not purified

Chain of TRKB (tropomyosin-related kinase B) (Q63604 32-821): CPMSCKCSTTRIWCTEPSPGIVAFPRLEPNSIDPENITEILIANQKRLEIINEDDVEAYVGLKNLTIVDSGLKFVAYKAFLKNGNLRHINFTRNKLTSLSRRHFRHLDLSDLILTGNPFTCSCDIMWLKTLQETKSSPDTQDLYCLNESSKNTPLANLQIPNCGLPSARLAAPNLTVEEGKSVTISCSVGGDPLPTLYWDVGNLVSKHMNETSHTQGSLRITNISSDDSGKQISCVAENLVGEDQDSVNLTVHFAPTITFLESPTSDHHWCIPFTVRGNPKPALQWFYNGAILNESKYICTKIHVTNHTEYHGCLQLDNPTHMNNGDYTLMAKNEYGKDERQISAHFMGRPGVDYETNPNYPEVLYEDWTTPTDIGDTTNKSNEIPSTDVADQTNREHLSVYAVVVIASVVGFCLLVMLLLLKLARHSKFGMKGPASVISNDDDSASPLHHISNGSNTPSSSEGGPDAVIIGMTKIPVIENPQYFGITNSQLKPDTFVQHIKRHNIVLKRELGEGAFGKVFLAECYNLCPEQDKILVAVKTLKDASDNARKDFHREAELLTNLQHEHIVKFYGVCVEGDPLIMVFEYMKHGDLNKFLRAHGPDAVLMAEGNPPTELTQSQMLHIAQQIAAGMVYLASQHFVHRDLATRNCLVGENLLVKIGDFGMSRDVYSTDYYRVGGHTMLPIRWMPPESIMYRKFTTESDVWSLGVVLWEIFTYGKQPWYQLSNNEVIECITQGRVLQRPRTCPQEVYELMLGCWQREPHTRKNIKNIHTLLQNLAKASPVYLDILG

B1: vanilloid receptor TRPV1 (receptor)
chain: not shown
notes: TRPV1 (vanilloid receptor, VR1), endogenous in rat primary cortical cells; band at 100 kDa on the blot; also called VR1; source: endogenous, lysate of primary cortical cultures of E18 rat embryos (DIV8)
ratio of TRKB-coupled TRPV1 compared to total TRPV1: 13.2%
